Measurements reported in the supplement of paper PMC3334620.
The full ranking holds about 33,000 sequences; the median of “E-score (-0.5 to 0.5)” is about -0.035, and the highest 2% start at about 0.35. The list shows a part of the results.

target: T1, Pdr3 (UniProt P33200); assay: PBM E-score (8-mer binding enrichment) (E-score (-0.5 to 0.5)); higher = stronger / more preferred TF binding; most listed sequences are background and not binding sites; conditions: protein concentration: 200 nM; construct: GST-full length
T1 sequence: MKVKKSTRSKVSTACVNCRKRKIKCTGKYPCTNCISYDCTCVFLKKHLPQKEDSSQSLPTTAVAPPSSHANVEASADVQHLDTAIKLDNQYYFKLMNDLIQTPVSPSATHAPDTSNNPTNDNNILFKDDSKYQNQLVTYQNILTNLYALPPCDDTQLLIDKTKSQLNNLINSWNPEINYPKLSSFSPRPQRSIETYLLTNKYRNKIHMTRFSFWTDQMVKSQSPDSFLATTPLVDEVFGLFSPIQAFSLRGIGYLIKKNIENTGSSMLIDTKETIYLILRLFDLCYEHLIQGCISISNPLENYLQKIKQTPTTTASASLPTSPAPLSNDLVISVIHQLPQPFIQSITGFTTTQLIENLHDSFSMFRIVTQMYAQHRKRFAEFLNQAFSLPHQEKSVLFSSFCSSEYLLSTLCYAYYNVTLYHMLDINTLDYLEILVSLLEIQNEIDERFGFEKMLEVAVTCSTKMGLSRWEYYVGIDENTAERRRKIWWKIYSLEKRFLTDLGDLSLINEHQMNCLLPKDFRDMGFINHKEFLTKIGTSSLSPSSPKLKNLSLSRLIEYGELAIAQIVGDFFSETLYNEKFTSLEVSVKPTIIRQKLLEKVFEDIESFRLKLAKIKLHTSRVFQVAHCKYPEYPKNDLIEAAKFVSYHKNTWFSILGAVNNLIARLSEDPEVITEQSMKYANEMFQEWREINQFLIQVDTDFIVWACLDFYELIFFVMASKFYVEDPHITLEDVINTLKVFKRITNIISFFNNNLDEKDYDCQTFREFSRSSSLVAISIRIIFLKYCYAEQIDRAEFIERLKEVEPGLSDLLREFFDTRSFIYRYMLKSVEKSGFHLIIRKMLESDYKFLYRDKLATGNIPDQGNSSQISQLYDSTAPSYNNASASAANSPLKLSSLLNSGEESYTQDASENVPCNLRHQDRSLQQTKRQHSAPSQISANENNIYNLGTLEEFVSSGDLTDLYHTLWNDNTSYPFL
How it was run: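 For each ungapped eight-base word taken together with its reverse complement, the Universal PBM Analysis Suite assigned an E-score. Binding data came from GST-tagged yeast transcription factors, applied at about 100-200 nM, on universal all-10-mer Agilent arrays made double-stranded by primer extension. Fluorescent anti-GST marked bound protein, and scans were normalised with masliner.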

Row | Sequence | PBM E-score
1 | AGTTAACA | 0.0226
2 | GTAAACAC | 0.0559
3 | CACTTTCA | -0.203
4 | GCATGACC | -0.0274
5 | GACCGTCA | -0.127
6 | CCAGGGCA | -0.0268
7 | CCCAGGAG | -0.226
8 | ACGGGATA | 0.38
9 | AGTACTTA | -0.163
10 | ATAAGGTC | 0.139
11 | AGCCAACG | -0.141
12 | AGCGAACT | -0.187
13 | GACATATC | 0.0956
14 | CAGAACAA | 0.0215
15 | CCTCGAGC | -0.0447
16 | AATGACCA | 0.0227
17 | CGTGCACA | -0.15
18 | AGTTCGAC | -0.086
19 | TCGGAAAA | 0.4
20 | GCTCCGCA | 0.178
21 | ATGCATTC | 0.0343
22 | CCCTCGAA | -0.221

Row | Sequence | PBM E-score
23 | GCAACTTA | 0.119
24 | GTGCTAAA | 0.00725
25 | ACCACTAC | 0.0513
26 | CATAGCCG | 0.231
27 | TCCCGCGA | 0.287
28 | ACTTATGC | -0.166
29 | GAGATATC | 0.115
30 | CGCCGTAG | 0.117
31 | CAAAACTC | 0.00097
32 | GGCGAACC | 0.0603
33 | GCCCGCTA | -0.201
34 | CGAATTAC | -0.0526
35 | TGATGACA | -0.0129
36 | AGGGTGCG | -0.167
37 | CGGGTCCA | 0.0381
38 | CCGCGCGG | 0.473
39 | ACAATACA | 0.0212
40 | ACCAATAC | -0.136
41 | TTAACAAA | 0.0347
42 | CGATACAA | 0.0404
43 | AGAGAGCA | -0.0698
44 | CACAAATA | -0.141

Row | Sequence | PBM E-score
45 | GCGTCGCA | -0.0451
46 | AGGAGCGG | -0.152
47 | AAGGCCAC | -0.0643
48 | CCACCAGC | 0.0384
49 | GCCGGGAC | 0.316
50 | GACGCCGA | 0.132
51 | CCCCATTC | 0.0934
52 | GAAACTGC | -0.0117
53 | CGAGTTCC | 0.226
54 | TAATCATA | -0.066
55 | ATGCCACA | -0.135
56 | GGAGGTAC | -0.0123
57 | AAACTTTG | 0.0946
58 | AACGAAAC | 0.0226
59 | GGCGTCAC | -0.0552
60 | GGGCCCTA | 0.0142
61 | ACGATCAG | -0.108
62 | CTGAGCCA | -0.152
63 | TGAAAGCA | -0.084
64 | AACATCTC | -0.144
65 | GCTCCAAC | -0.0247
66 | GTAACCTA | 0.119

Row | Sequence | PBM E-score
67 | CTTGATAC | -0.287
68 | GAGCACTC | 0.0159
69 | GGACACCA | 0.167
70 | CAGGCGCC | 0.0233
71 | GCCATAAC | -0.101
72 | AAGCGCAC | -0.0371
73 | CTTCCACA | -0.166
74 | ATCGCCAC | 0.0847
75 | AGGATTAC | -0.141
76 | CCTAAAAC | -0.159
77 | TACTCATA | -0.042
78 | ATGTTAAG | -0.105
79 | ACGAGCTA | -0.123
80 | GAAATCCC | 0.0874
81 | GGTCTGGA | -0.0719
82 | CTCGTTAA | -0.177
83 | AATTCGGA | 0.365
84 | GGCGTCCA | -0.00919
85 | CAACGTTG | 0.0678
86 | ATCTTTGC | 0.0117
87 | ACGTTTAA | -0.159
88 | GCAAACAA | 0.0332

Row | Sequence | PBM E-score
89 | AGTCAAAC | -0.166
90 | ACGGGTAT | 0.0895
91 | CAACATCG | 0.0554
92 | GGCAACTA | 0.0892
93 | ACATAGGG | -0.0992
94 | GCTTTACA | 0.0212
95 | CGGATCAG | 0.334
96 | GATAAACA | 0.0969
97 | AGAATACT | -0.121
98 | AACTAGTA | -0.225
99 | AAGTGTCC | 0.113
100 | CAACCAGA | 0.0315
101 | AGCCTTGG | -0.306
102 | CCCAGAAG | -0.163
103 | CGAGGCTA | -0.0662
104 | CAAGTAAC | -0.0792
105 | CAACTAAA | -0.062
106 | AACGAGTT | -0.219
107 | CCCATTGA | 0.0107
108 | GCCATCAC | -0.166
109 | GCACTCTA | -0.0708
